Reference: the RNAGym collection of RNA variant scans (doi:10.1073/pnas.2313332121)
Variants at the background level are over-represented here.

B1: TPR 5TU (parent)
chain: GGAUCUUCUCGAUCUAACAAAAAAGACAAAUCUGCCACAAAGCUUGAGAGCAUCUUCGGAUGCAGAGGCGGCAGCCUUCGGUGGCGCGAUAGCGCCAACGUUCUCAACUAUGACACGCAAAACGCGUGCUCCGUUGAAUGGAGUUUAUCAUG

Variants of: B1
Experiment: polymerase ribozyme fitness, log enrichment relative to wild type (log ratio); higher = more active; in vitro selection for triplet polymerase activity
Procedure, shortened: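 To select mutant libraries of each subunit of a heterodimeric triplet polymerase ribozyme, built by PCR and transcribed, each was annealed with a biotinylated primer, partner subunit and triplets, then incubated frozen at −7 °C. Extended constructs were gel-excised, captured on streptavidin beads and amplified by RT-PCR, in one round carried out in triplicate. Illumina sequencing of input and output libraries kept genotypes with ≥10 input reads and ≥1 read per output. Fitness is the base-2 logarithm of genotype enrichment relative to wild-type enrichment, from inverse-variance-weighted replicate averages.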

Polymerase ribozyme fitness (log ratio), -0.305:
A17C C27U C38A C85U

Polymerase ribozyme fitness (log ratio), -4.13:
A17C G58U G128A A138U

Polymerase ribozyme fitness (log ratio), -3.46:
A16U G58A C93A

Polymerase ribozyme fitness (log ratio), -4.12:
A16G C36G

Polymerase ribozyme fitness (log ratio), -2:
A16G C27U

Polymerase ribozyme fitness (log ratio), -4.14:
A16G G46U U55A C85A C105A

Polymerase ribozyme fitness (log ratio), 0.00969:
A17G A19U

Polymerase ribozyme fitness (log ratio), -2.32:
A16U U82G C87U A122C

Polymerase ribozyme fitness (log ratio), -3.41:
A17C U55A G59A A60G C96A G143U

Polymerase ribozyme fitness (log ratio), -3.86:
A17C A24U C114A

Polymerase ribozyme fitness (log ratio), -2.47:
A16U G94A

Polymerase ribozyme fitness (log ratio), ≤ -4.2:
A17C A20C C36G A47U C79A G94U C99U U127A U144C C149A
A16U U56A G83A U109C U111G
A17G A20C A30G G46A G59U G67C G68U G70U C96G
A17C C75U G84U C149G
A17C A30G C79G C87G C96G C105A
A17C A21U G48A G84A U90C C99U
A16U A24G A49G A138C U148G
A16U G50U G58C C118G A120C G124C G143U
A16U A26C A30C C43U A47C A49C C103A C129U
A16U A19C A30U G86U C95G
A16U A26C G74A C99G G128U
A16G C38U G50C U55A C57U C85G A120G A137U G143C
A16U G86U C87A
A17G A20C A52G A89G U148C
A16U A40G G58A U77C G92U
A17C U53A G71C G83A A91U C93A C108U U127G
A17C A52U C85G C99G G128A
A16U A28C G58C G83U C108A
A17C G68C C85G C125U G143C
A16U A23G U148A
A17C C87G C93U C99G
A16U A29C A52G G68A U101C G136U
A17G A22C G48U G50C G65A A73U G94C C105U U146A
A16U A28U C54U G117C
A16U C38U A91U C103A
A16G C38G G50A U102C A106U
A17C C76U C93G U102G C105A
A16U A28C A40C A52C G74U C87A A122U U144G C149G
A16U A52U A60G C93U
A17C C27A A52G A60U C69U C85A C95G C125A
A16G G46A C54A U144A
A17C A28G G42U C57G A73G U78A G94C G126A
A16U C18U A20C A29U C38U G94A C105G
A16U G74C C93A U101A G143A G152U
A16U A24C G48U U109A A115G
A16G G50C G59C G88U A89U G152U
A16G C27G A47U G62U G83U C129A A150G
A16U A29C C85U U146G
A16U C27U C95A U148G
A16U C32G A37G A97G G124A G133U U135C
A16U A19C C57U G71C U134G G141U
A16U A23G C57U G84A C114U G136C U146G
A17C U44G U61G
A16G U33G U90G C114U G117U A138C A150G
A16U A24U A41U G48A G94A C99A
A16U A26C G42C A60C C76A G92U A110G U146C
A16G C18G C27U A66U G83U C108U C129A A138C
A16G U53A G58A C93U A97C C125G U130A
A17C C32A G58C C96G A142U
A17C A49C G59U G86U G141U
A17C C76U C85A U109C A122U
A16G C43U G71C C85U C103G C105U G141A
A16U A40G C87A U148A
A16G C38U U44A A89C U101G A122C
A16U C32A C35G A47C G58C G68A G70U C96G G126C
A16U U53C C54U U55G C93U
A17C A37U G50C G133U
A17C G42A G59A G86U G88U A107U C132U U146C
A16G A60G A98U A107U U111C G126U
A17C G68C U90C C99G C125G U134A G141A
A17C C27G G48C U82C A106C G124U
A17C A64U C103G A150U
A17C C95A C103G C108G
A16U G34U G71A G94A U102G U151A
A16U A24C G68U G84A C116G G124A C129A G143U
A17C C36U A39U U77G G80C C96G C149A
A17C G25C A41U C51A G84C G94U A110G U144C U146G
A16G C69U C85U C131G U146G
A16U G42C A147U
A16U A17U U61G G84U C103G G136U A137U U145G
A16U A19C U61G G80C C87U A98G G133C G152U
A17G A20U C43A G46U U55A C57U C72A G94A
A16U A40G A66G C99G U104G G152U
A16G G80C G81A A97G U102C G136C C149U
A17C C32G C54A C76G G80A C93A C96A U111A
A16U A28C U31C G83A U101C
A16U A40G C75U G94C U130G C131A
A17G A22C U31G C69G A73G C75G C79G G88U A98U
A17C A47U G58A G83U G94A G126U
A16U U53A C75A C93A C103G U130A
A17C A21U C43A U55C C85A A89G C131U
A16U A41G C51U G74C C95U C103U C118U G133A
A17C A23C U31A C35G C43U U144G
A16U A49C C69G G92C C99U A107G G136A G141U
A16U A49C G62A G92A A150U
A16G C18U C27U A28U A40C G50C U56A G84C C125A G143A U146G
A16U C85A C99U A138G
A16U A26G U56A G68C G84U A91U C93G C132G
A16U A21G A30U G48C
A17G A20U A24U A40C G42C U44A G94A A150G
A17G A21C A24C A26G C27G G71C G83C
A16U A20G C54G C93G U104G A106U A137U A142C
A16G C27A C69U C72U C87G G133C
A17C A73G U78G C85A A97G C99G A113U C118A G124A G143A
A16U G74C A91C G141C
A17G A20U U45A U90G
A16U A52G G58A U61A C76G C79G U90C
A17C A28U G59A A60C C85U C93A C99U
A16U C87A G100A
A17C A24C U146G
A16U G50U U61A C105A C123U
A16G U44A U77A C85G A122U U134C U146G
A16U A21U C27A U44G A60G G74A U78C A142C
A17C U77C G92C
A17C A23U A29U A39C U53A C79G G94A C116U
A16G G25C C57U G74A C108G C118A G143C
A16U A22U C51A U77C A91U C99G A107U A115C
A16U A29G G92A
A16U A20C A41U C87G A98G
A16U C27A A40C A113C C149G
A16U A66U G124A
A16G C32U U33G A66C U101G U109G A121C U148C C149G
A16G G58A G92U G133A
A17C U78G G92U C93A
A16U G126U C131A
A16U C27A G42A U44G U45A A49C A113G U144A
A16U C76A G94A C96U G128A
A16U A60U G86A C114U
A16U A17U A23U G46C G92A A106G C125G U135A
A16G G34C U53G C87A C93A C105U
A16U C32G A60G G88A C105A U148A
A16U A64U A66C C93G
A17G A20C A29G A47U C72A A97C A121G A137C G140U
A17G A20U A37G U53G A98U A106U G126C G136C G143U
A16U A23U A29G C93A
A16U A17G G74C C95U G143C U151G
A16G C87A G136A
A16U A91C A106G
A16G G25U A41C G46A C69U G133C
A16G G46C A73G C87A C116U A150G
A16G C32G A41U G80C C99U A110U U127A G143A
A16U G83A A89G U109G U130G C132G
A16U C54G A97C C116G G124U A137C
A17G A19U C93U U102C G136A U148A
A17C A21C A40G C87G A91G G100C
A17C C27U G71A C93G A113C U134G U151G
A16G G94A U102G G140U
A16G U56A G86U C103G U135A G152A

Polymerase ribozyme fitness (log ratio), 0.45:
A17C C95U

Polymerase ribozyme fitness (log ratio), -1.63:
A17C A40G

Polymerase ribozyme fitness (log ratio), -1:
A16G C38U U82A C96G

Polymerase ribozyme fitness (log ratio), 0.315:
A17C

Polymerase ribozyme fitness (log ratio), -3.52:
A16G G94U C95A U134G

Polymerase ribozyme fitness (log ratio), -4.03:
A17C G88A A91G U148A

Polymerase ribozyme fitness (log ratio), -2.3:
A16U C85U U144C

Polymerase ribozyme fitness (log ratio), -2.95:
A17C A21U G25U G84A

Polymerase ribozyme fitness (log ratio), -3.89:
A16G U33G U55A C95U

Polymerase ribozyme fitness (log ratio), -4.15:
A16U A24U U33A C35U C87G

Polymerase ribozyme fitness (log ratio), -0.775:
A16G G80A

Polymerase ribozyme fitness (log ratio), -3.77:
A16G A110G

Polymerase ribozyme fitness (log ratio), -1.65:
A16G A98U

Polymerase ribozyme fitness (log ratio), -3.81:
A16U U56G G84A U102A G141U

Polymerase ribozyme fitness (log ratio), -2.98:
A16U C51U C95U

Polymerase ribozyme fitness (log ratio), -0.0541:
A17C C57U U82C

Polymerase ribozyme fitness (log ratio), 0.0905:
A17G

Polymerase ribozyme fitness (log ratio), -2.81:
A16U C93U
